Experimental data reported in paper PMC4336329 (PLoS ONE, 2015).
About 2,200 (0.71%) of roughly 310,000 compounds showed an effect of 50% or more. Effects have a minus sign here. This is one part of the list.

The compounds below were run against human ether-à-go-go-related gene (hERG) potassium channel (human, UniProt Q12809) (assay: primary screen, population patch clamp on CHO cells stably expressing hERG).
Sequence of human ether-à-go-go-related gene (hERG) potassium channel (Q12809 whole entry, looked up): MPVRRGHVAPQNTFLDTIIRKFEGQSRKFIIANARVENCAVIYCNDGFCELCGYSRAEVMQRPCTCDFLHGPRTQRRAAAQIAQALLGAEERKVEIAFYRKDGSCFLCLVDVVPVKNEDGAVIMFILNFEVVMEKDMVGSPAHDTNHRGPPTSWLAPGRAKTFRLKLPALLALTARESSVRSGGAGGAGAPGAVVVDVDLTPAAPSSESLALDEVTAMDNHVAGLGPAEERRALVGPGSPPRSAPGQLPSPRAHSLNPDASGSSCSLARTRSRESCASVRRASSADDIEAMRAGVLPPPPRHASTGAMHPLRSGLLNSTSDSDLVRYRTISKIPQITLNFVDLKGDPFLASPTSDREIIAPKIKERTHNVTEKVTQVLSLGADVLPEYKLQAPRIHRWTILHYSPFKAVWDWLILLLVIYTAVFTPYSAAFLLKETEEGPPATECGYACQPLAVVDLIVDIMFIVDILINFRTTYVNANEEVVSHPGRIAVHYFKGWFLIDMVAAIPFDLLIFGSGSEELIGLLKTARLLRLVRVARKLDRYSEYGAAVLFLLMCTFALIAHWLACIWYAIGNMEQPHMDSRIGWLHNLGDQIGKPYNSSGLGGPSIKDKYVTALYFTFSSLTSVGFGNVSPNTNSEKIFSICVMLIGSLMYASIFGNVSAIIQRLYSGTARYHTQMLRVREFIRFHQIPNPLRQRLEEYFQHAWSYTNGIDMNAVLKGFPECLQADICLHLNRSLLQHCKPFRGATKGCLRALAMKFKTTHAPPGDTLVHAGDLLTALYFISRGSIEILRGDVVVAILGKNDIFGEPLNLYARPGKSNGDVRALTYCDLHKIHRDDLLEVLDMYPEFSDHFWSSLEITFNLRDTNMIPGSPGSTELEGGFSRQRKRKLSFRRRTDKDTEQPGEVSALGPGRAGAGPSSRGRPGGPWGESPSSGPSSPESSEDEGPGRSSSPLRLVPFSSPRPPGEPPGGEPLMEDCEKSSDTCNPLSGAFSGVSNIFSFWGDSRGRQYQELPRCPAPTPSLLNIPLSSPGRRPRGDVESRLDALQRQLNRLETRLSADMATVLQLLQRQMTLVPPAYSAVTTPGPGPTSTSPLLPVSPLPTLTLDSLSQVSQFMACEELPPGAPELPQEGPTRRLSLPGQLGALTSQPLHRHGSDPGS

SMILES	hERG current change (%, negative = inhibition) at 1uM [%]
O=C(NCc1ccccc1)c1cc(-c2ccco2)on1	0.671
C=CCNC(=O)c1cccc(Br)c1	19.2
O=C1CC[C@@H](CN(Cc2ccccn2)Cc2nc(-c3ccc(C(F)(F)F)cc3)no2)N1	-19.6
O=C1c2ccccc2C(=O)N1c1ccc(Cc2ccncc2)cc1	5.56
CCSCc1nnc(SCC(=O)Nc2ccc(OC)cc2)n1C	6.11
CCc1ccc(N2C(=O)CN(Cc3cccs3)C2=S)cc1	9.98
CCCn1c(C2CCCN2c2nc(C)cs2)nc2cc(Cl)c(Cl)cc21 (centres unmarked)	-11.1
Cc1cc(SCC(=O)O)nc2ccccc12	20.9
CCOC(=O)c1sc(N)c(C(=O)Nc2ccccc2)c1C	1.36
O=C(/C=C/c1ccc(Cl)cc1)NCCCn1ccnc1	-14.1
CCC1=NC(c2ccc(Br)cc2)N(O)C1(C)C (centres unmarked)	7.13
CCOC(=O)N1CCN(S(=O)(=O)N2CCCC(C(=O)NCc3ccc(F)cc3)C2)CC1 (centres unmarked)	5.67
COc1ccc(CCC(=O)NCCS(=O)(=O)N2CCN(c3ccc(OC)cc3)CC2)cc1	10.8
COC(=O)c1sc(NC(=O)c2cc3c(s2)CCCC3)nc1C	8.25
CCNC(=S)N/N=C/c1ccc(F)cc1	8.05
Cc1ccc(N2CCN(CCc3ccccc3)CC2)cc1	-6.51
COc1ccc(C(=O)N/C(=C\c2cn(C)c3ccccc23)C(=O)NCCCN2CCOCC2)cc1	11.3
CCOC(=O)c1cc(C(=O)c2cc(Br)ccc2O)coc1=N	10.2
Cc1ccc(S(=O)(=O)N(C)CCCC(=O)N2CCOCC2)cc1	6.68
O=C(c1ccc(N2CCOCC2)cc1)c1cccs1	2.41
N#CCC(=O)NNC(=S)Nc1ccccc1C(F)(F)F	12.7
O=C(CN(C(=O)c1csnn1)c1cccc(Cl)c1)NCCc1ccccc1	2.68
COc1cccc(CN(C)C(=O)CN2C(=O)NC(c3ccccc3)(c3ccccc3)C2=O)c1OC	5.36

SMILES	hERG current change (%, negative = inhibition) at 1uM [%]
C[C@H](Nc1ccc(C(F)(F)F)cc1[N+](=O)[O-])C(=O)O.[Cl-]	2.73
CC(C(=O)NCCN1CCOCC1)(c1ccccc1)c1ccccc1.Cl	11.1
COc1ccc(/C=C2/SC(=S)N(CCCC(=O)Nc3cccc(O)c3)C2=O)cc1	7.48
CN(C)S(=O)(=O)c1cccc(NC(=O)c2ccccc2OCc2ccc(F)cc2)c1	6.8
Cc1ccc(S(=O)(=O)N2CN3CCN(C3)C2)cc1	-5.75
O=C(NCc1ccccn1)c1ccc2c(=O)n3nc(Nc4ccccc4)sc3nc2c1	16.6
N#CC1=C(N)NC(SCC(=O)c2ccc(Br)cc2)=C(C#N)C12CCCCC2	7.45
Cc1ccccc1S(=O)(=O)Cc1ccc(C(=O)NCc2cccs2)o1	1.46
Cc1ccc(S(=O)(=O)N2CCCCC2)cc1C(=O)N1CCN(c2ccccn2)CC1	5.78
Cc1nccn1CC(=O)N/N=C/c1cc(Br)cs1	12
Cc1cccc(N=Nc2ccc(O)c3ncccc23)c1	5.68
Cc1ccc(-c2ccc(CCC(=O)O)n2-c2cccc(C(=O)O)c2)cc1	13.3
CCc1nnc(NC(=O)CSc2nnc3nc(C)cc(C)n23)s1	9.21
COc1ccc(/C=N/NC(=O)CNC(=O)c2ccc3c(c2)OCCO3)cc1OC	6.35
COc1ccc2nc(NC(=S)NC(=O)c3ccco3)sc2c1	11.4
CCOc1ccc(NC(=O)CN(C)CC(=O)NC(C)c2ccccc2)cc1OCC (centres unmarked)	-3.28
Cc1nc(NC(=O)CSc2nnnn2C)sc1C	12.3
Cc1ccc(NC(=O)Cn2cnc3c(cnn3C(C)(C)C)c2=O)cc1	8.41
CCOCC(=O)Nc1ccc([N+](=O)[O-])cc1OC	3.45
O=C(COc1ccc([N+](=O)[O-])cc1)Nc1nnc(-c2cccnc2)s1	4.14
O=C(CCc1c[nH]c2ccccc12)NCCc1ccc(O)cc1	6.51
Cc1cccc(N2CCN(C(=O)c3ccc(CS(=O)Cc4cccc(Cl)c4)o3)CC2)c1C (centres unmarked)	11.4
CCOS(C)(=O)=O	14.8

SMILES	hERG current change (%, negative = inhibition) at 1uM [%]
Clc1ccc(CNc2cnccn2)cc1Cl	13.5
COc1ccc(OC)c(Cc2nnc(CCC(=O)NC(C3CC3)C3CC3)o2)c1	10
CCN(CC)C(=O)c1sc2c(c1C)c(=O)n(-c1ccc(OC)cc1OC)c(=O)n2CC(=O)c1ccccc1	4
COC(=O)c1ccc(N2CCN(C)CC2)c(NC(=O)c2ccc(Br)o2)c1	-9.41
COCCNC(=S)N=Nc1c(O)[nH]c2c(C)cc(C)cc12	1.17
NS(=O)(=O)c1ccc(CNC(=S)NCc2ccc(Cl)cc2)cc1	-0.229
COc1ccc(CNS(=O)(=O)c2c(C(=O)N3CCCCC3)c(C)n(C)c2C)cc1	14
NS(=O)(=O)c1ccc(NC(=O)C(Sc2ccccc2)c2ccccc2)cc1 (centres unmarked)	11.4
Cc1ccccc1C(=O)N1CCC(C(=O)Nc2ccc(S(=O)(=O)N(C)C(C)C)cc2)CC1	4.71
O=C(Nc1cccc(Cl)c1)N1CCc2ccccc2C1	10.1
Cc1ccc2nc(NCc3ccccc3)c(C=O)c(=O)n2c1	1.77
CCC(Sc1nc2ccccc2[nH]1)C(=O)Nc1ccc(NC(C)=O)cc1 (centres unmarked)	5.01
CC(c1ccccc1)N1CC(C(=O)Nc2nccs2)CC1=O (centres unmarked)	-2.76
Cc1cc(/C=N/n2cnnc2)c(C)n1-c1ccc(OCc2ccc(Cl)cc2)cc1	7.74
O=C(NCCc1ccncc1)c1ccc2nc(Cc3cccc(Cl)c3)oc2c1	8.95
COc1ccc(NC(=O)NCCCCc2ccccc2)cc1OC	8.32
CC1=CC2=NC(=O)/C(=C\c3cc(C)n(-c4ccc(F)cc4)c3C)C(=N)N2O1	14.4
O=C1NC(=O)c2cc(NC(=O)c3cccc4ccccc34)ccc21	10
Cc1ccc(C(=O)NCCCN2CCN(CCCNC(=O)c3ccc(C)cc3)CC2)cc1	-36.5
CSC1=NC(C(Cl)(Cl)Cl)N=C(c2ccc(C)cc2)N1.Cl (centres unmarked)	10.3
O=C(Nc1ncn[nH]1)c1ccccc1O	4.56
COc1ccc(-c2nnc(NC(=O)c3ccco3)s2)cc1	16.6
COc1ccc(C(=O)Nc2cnc3ccccn3c2=O)cc1	9.6

SMILES	hERG current change (%, negative = inhibition) at 1uM [%]
N#Cc1nc(Cc2ccccc2)oc1N1CCC(Cc2ccccc2)CC1	18.5
COc1ccc(N2CCN(C(=O)CCN3C(=O)c4ccccc4S3(=O)=O)CC2)cc1.Cl	-2.05
O=C(NCc1ccco1)c1ccc(CNc2c(N3CCCCC3)c(=O)c2=O)cc1	7.74
O=[N+]([O-])c1cccc(-c2nc3ccccc3s/c2=N/O)c1	4.64
CCn1c(/C=C2\C(=O)N(C)c3ccccc32)nc2ccccc2c1=O	7.29
CCc1ccc(C(=O)C(C)OC(=O)CNS(=O)(=O)c2ccc(C)cc2)cc1 (centres unmarked)	9.83
Cc1ccc(-c2c(C#N)c(N)nc3c2CCCC3)o1	6.77
CCOC(=O)C(C)Sc1nnc(CSc2nc3nc(C)cc(C)n3n2)o1 (centres unmarked)	12.9
O=C(CN1CCc2ccccc2C1)Nc1ccccc1N1CCCCCC1.O=C(O)C(=O)O	-0.782
Cc1ccc(S(=O)(=O)CCC(=O)OCC(=O)NNC(=O)c2ccc([N+](=O)[O-])cc2)cc1	-1.62
O=C(O)C/C=C(/NC(=O)OCc1ccccc1)C(=O)OCc1ccccc1	3.07
CC(=O)c1ccc(N(CC(=O)NC2CCCC2)C(=O)CNC(=O)c2ccco2)cc1	9.11
O=C(c1ccc2c(=O)n(-c3ccccc3)c(=O)[nH]c2c1)N1CCCCC1	1.54
C=CCONC(=O)c1cc(OCC(F)(F)F)ccc1OCC(F)(F)F	-0.727
COCCCNC(=O)CS(=O)Cc1nc(-c2cccc(OC)c2)oc1C (centres unmarked)	5.9
O=C(O)c1ccc(Nc2nc(-c3cccnc3)cs2)cc1	-1.2
CCCCNC(=O)NNC(=O)COc1cc(C)cc(C)c1	8.03
O=C(CNc1cccc(S(=O)(=O)N2CCCCC2)c1)Nc1ccccc1F	10.3
CC1(C)O[C@@H]2C[C@H]3[C@@H]4CCC5=CC(=O)CC[C@]5(C)[C@@]4(F)[C@@H](O)C[C@]3(C)[C@]2(C(=O)CCl)O1	15.4
COc1ccc(CC(=O)N2N=C(C)CC2(O)c2cccnc2)cc1OC (centres unmarked)	6.22
